From PubChem BioAssay AID686979 (National Center for Advancing Translational Sciences (NCATS), 2013)
About 50,000 (12%) of roughly 420,000 compounds were called active. The shares of active, inactive and inconclusive entries below differ from those in the screen. Calls follow the shape of the dose curve; as a rule, active = well fitted inhibition curve with a large enough effect; inconclusive = small, poorly fitted or top-dose-only effect; inactive = flat fitted curve, though single readings scatter. Potencies of inconclusive entries are left out as doubtful fits.
% is scaled to controls: 0 for no effect and ±100 for the full control effect; potency is read from the fitted curve at half-maximal effect; tags tell the direction and shape of the fitted curve.

Assay: qHTS for Inhibitors of human tyrosyl-DNA phosphodiesterase 1 (TDP1): qHTS in cells in presence of CPT; also: nearly all actives have a fitted effect of over 55% in size
Conditions: chicken DT40 Tdp1-/-;hTDP1 cells + 20 nM CPT, ATP luminescence, 48 h; activity change, negative = growth inhibition: at 46.2 µM (top of the series) unless noted
Excerpt: Human tyrosyl-DNA phosphodiesterase 1 (TDP1) is a novel repair gene, and we propose to use it as a new target for anticancer drug development. TDP1 is not an essential protein, but under treatment with topoisomerase I poison (camptothecin: CPT), TDP1 works as a critical factor for cell survival. To directly identify novel TDP1 inhibitors active in a cellular environment, we have knocked-out the Tdp1 gene in chicken DT40 cells (Tdp1-/-) and generated a complemented counterpart cells that contains a stable transfection of the human TDP1 gene (Tdp1-/-;hTDP1 cells). For the primary screen, Tdp1-/-;hTDP1 cells will be exposed to small molecules in the presence or absence of CPT, and their growth kinetics will be evaluated after 48 hours by measuring ATP activity. […] The hit compounds will then be evaluated in the presence or absence of CPT using Tdp1-/- cells. […] In tertiary assays, biochemical gel-based assays will be used to assess whether the hit compounds specifically target TDP1. To this end, we have screened this cell line against the MLSMR in two primary screens. In one screen we add CPT and in the other we screen in the absence of CPT; this AID represents the screen where CPT was present. NIH Chemical Genomics Center [NCGC] NIH Molecular Libraries Probe Centers Network [MLPCN] MLPCN Grant: MH095538 Assay Submitter (PI): Yves Pommier, NCI
DT40-hTDP1 cells with 20 nM Camptothecin (add 20 microL of 1 mM CPT stock in 1 L of cell culture medium) were dispensed at 400 cells/5microL/well in tissue culture treated 1536-well white wall/solid bottom assay plates (Greiner Bio-One North America, NC, U.S.A.) using a Multidrop Combi 8 channel dispenser (Thermo Fisher, Waltham, MA, USA). 23 nL compounds and controls were transferred using the pin tool (Kalypsys, San Diego, CA, USA) to the assay plates. The assay plates were then incubated at 37 masculineC for a minimum 48 hr. Three microL of Cell Titer Glo solution was added to the plates and incubated at RT in dark for 30 min. Luminescence was read using ViewLux (Perkin Elmer) with 1 sec exposure slow speed, high gain and 2x binning.
With CC1Cc2ccccc2N1C(=O)CSc1ncccc1C(=O)O (configuration not stated) the “activity change, negative = growth inhibition” value was inactive: 7.06%. In the case of C=CCc1cc(Cl)ccc1OCCCNCCO, the Potency is reported as inconclusive [inhibitor, single point]. With CCOC(=O)C1CCCN(C(=O)C2CCCN(S(=O)(=O)c3ccc4c(c3)oc(=O)n4C)C2)C1 (configuration not stated) the “activity change, negative = growth inhibition” value was inactive: -19.6%. For COc1cc(/C=C2/SC(=S)N(CCC(=O)N3CCN(C)CC3)C2=O)cc(OC)c1OC, the Potency was inconclusive [inhibitor, single point]. For C=CCCC(=O)NC1CC(C)(C)Cc2c1cnn2-c1ccc(OC)cc1 (configuration not stated), the Potency was inconclusive [inhibitor, single point]. With Cc1ccc(S(=O)(=O)Nc2ccccc2CNc2ccccn2)cc1 the “activity change, negative = growth inhibition” value was inactive: -6.97%. With CC(=O)N1CCc2c(sc(NC(=O)Cc3ccccc3)c2C#N)C1 the “activity change, negative = growth inhibition” value was inactive: -5.93%. For C=CC[C@H](CC(=O)NCCO)C(=O)N[C@@H](COC(=O)[C@@H](CC=C)Cc1ccc(F)cc1)Cc1ccccc1, the Potency was active: 20.6 µM. With COc1ccccc1CNC(=O)c1oc2ccc(S(=O)(=O)N3CCOCC3)cc2c1C the Potency was inconclusive [inhibitor, single point]. In the case of CC1CCN(CCCNC(=O)CN2C(=O)CSc3ccc(S(=O)(=O)N4CCCCC4)cc32)CC1, the Potency is reported as “inactive”. In the case of COc1cc(S(=O)(=O)N2CCN(C(=O)C3CC3)CC2)ccc1NC(C)=O, the “activity change, negative = growth inhibition” value is reported as inactive: -6.15%. For COc1ccc2[nH]c3c(c2c1)CCN1C(=O)C(CC(=O)NCc2ccc(OC)c(OC)c2)C[C@H](C(=O)N2CCCCC2)[C@@]31CCc1ccccc1 (some centres not stated), the Potency was inconclusive [inhibitor, partial curve, poor fit]. In the case of O=C1C2C3CCC(C3)C2C(=O)N1CNc1ccccc1 (configuration not stated), the Potency is reported as inconclusive [inhibitor, single point]. In the case of CCN1CCCC1CNC(=O)c1cc2c(-c3ccc(Cl)cc3)nn(C)c2s1 (configuration not stated), the Potency is reported as active: 18.4 µM. With CCN(CC)c1ccc2c(C)c(CN3CCOCC3)c(=O)oc2c1 the Potency was inconclusive [inhibitor, single point]. With Cc1ccc(S(=O)(=O)NCc2csc(C)n2)cc1 the “activity change, negative = growth inhibition” value was inactive: 5.78%. For COc1ccc(CCN2C(=O)CSC2c2cccc([N+](=O)[O-])c2)cc1OC (configuration not stated), the activity change, negative = growth inhibition was inconclusive: -32.1% [inhibitor]. In the case of Cc1ccc(CNC(=O)C2CCCN(c3nc4ccccc4n4cccc34)C2)cc1 (configuration not stated), the Potency is reported as inconclusive [inhibitor, single point]. In the case of Cc1cc(NC(=O)Cc2c(F)cccc2Cl)no1, the Potency is reported as active: 14.6 µM. For CC(=O)NCCC(=O)N1CCCC(CNC(=O)c2ccc(-c3ccccc3)cc2)C1 (configuration not stated), the “activity change, negative = growth inhibition” value was inactive: -5.33%. With CC1=NN(c2nc(-c3ccc(C)cc3)cs2)C(=O)C1N=Nc1ccc(C(N)=O)cc1 (configuration not stated) the Potency was active: 4.61 µM. In the case of CCCCC(=O)Nc1cccc(NC(=O)c2ccccc2Br)c1, the activity change, negative = growth inhibition is reported as inconclusive: -35.5% [inhibitor]. In the case of Cc1ccc(C)c(CN2CCC(CNC(=O)C(CC(C)C)N3Cc4ccccc4C3=O)CC2)c1 (configuration not stated), the Potency is reported as inconclusive [inhibitor, single point]. For CS(=O)(=O)Nc1cccc(NC(=O)c2ccc(-n3ccnc3)c3ccoc23)c1, the Potency was active: 13 µM. For CCCCNC(=O)C[C@@H]1C[C@@]2(C(=O)OCC)CCC=C2N(CCC2=CCCCC2)C1=O, the Potency was active: 18.4 µM. In the case of CCc1cccc(C)c1NC(=O)C1=C(C(=O)O)CCCC1, the “activity change, negative = growth inhibition” value is reported as inactive: 1.12%. With COC(=O)[C@@]12C[C@@H](CC(=O)NCc3cccc(C(F)(F)F)c3)C(=O)N(Cc3ccccc3)C1=CCC(C)(C)C2 the Potency was inconclusive [inhibitor, single point]. With O=C(c1cccs1)N1CCCc2cc(NS(=O)(=O)c3ccc(Br)cc3)ccc21 the Potency was inconclusive [inhibitor, single point]. For CN1CCN(C(=S)c2cn(Cc3ccccc3)c3ccccc23)CC1, the Potency was inconclusive [inhibitor, single point]. With Cc1nc(NC(=O)C2CCCCC2)sc1C the “activity change, negative = growth inhibition” value was inactive: -3.4%. In the case of Brc1cccc(-c2nn(-c3ccccc3)c3c2cnc2cc4c(cc23)OCO4)c1, the “activity change, negative = growth inhibition” value is reported as inactive: -0.577%. In the case of O=C(C(Cl)c1ccccc1)N1CCCC1 (configuration not stated), the Potency is reported as inconclusive [inhibitor, single point]. For COc1ccc(-n2c(CC3C(=O)Nc4ccc(C)cc43)nc3ccccc3c2=O)cc1 (configuration not stated), the Potency was inconclusive [inhibitor, single point]. For CCCCS(=O)(=O)N1CCCC(C(=O)Nc2ccc(Cl)cn2)C1 (configuration not stated), the “activity change, negative = growth inhibition” value was inactive: 8.28%. For CSc1ccc(/C=C/C(=O)NC23CC4CC(CC(C4)C2)C3)cc1, the Potency was inconclusive [inhibitor, single point]. In the case of c1ccc(-n2cnnn2)cc1, the “activity change, negative = growth inhibition” value is reported as inactive: -4.16%. For COc1cc(CNCCO)ccc1OCCc1ccccc1, the Potency was inconclusive [inhibitor, single point]. With O=C(NCc1ccccc1C(F)(F)F)C1CC(c2ccccc2C(F)(F)F)=NO1 (configuration not stated) the Potency was inconclusive [inhibitor, partial curve]. With COc1cccc(-n2ccnc2SCC(=O)Nc2cccc3ccccc23)c1 the Potency was inconclusive [inhibitor, single point]. With COc1ccccc1N1CCN(CCn2c(=O)[nH]c3c([nH]c4ccccc43)c2=O)CC1 the Potency was “inactive”. In the case of COC(=O)COn1c(-n2nc(C)cc2C)nc2ccccc2c1=O, the Potency is reported as inconclusive [inhibitor, single point]. For Cc1sc(NCc2ccccc2)nc1-c1ccccc1, the Potency was inconclusive [inhibitor, single point]. With Cc1sc2ncnc(NCC(O)c3ccc([N+](=O)[O-])cc3)c2c1C (configuration not stated) the Potency was active: 7.31 µM. For O=C1CCNc2c(Cl)cccc21, the “activity change, negative = growth inhibition” value was inactive: -10.3%. For O=C1CC(c2ccccc2)CC(O)=C1C=NCCN1CCN(Cc2ccccc2)CC1 (configuration not stated), the activity change, negative = growth inhibition was inconclusive: -30% [inhibitor]. For C/C(=N\NC(=O)COc1ccc(C(C)(C)C)cc1)c1ccc(N2CCOCC2)cc1, the Potency was inconclusive [inhibitor, single point]. In the case of COc1ccccc1-c1cc2nc(NCc3cccc(Cl)c3)ccn2n1, the Potency is reported as inconclusive [inhibitor, single point].
